Test results as given in PubChem BioAssay AID686970 (National Center for Advancing Translational Sciences (NCATS), 2013).
The campaign covered roughly 360,000 compounds. About 6,000 (1.7%) were called active. The inconclusive results got no clear call from the source; some entries with a clear call stand among them for comparison. The call rests on the fitted dose curve; in most records, active means well fitted cell-killing curve with a large enough effect; inconclusive means small, poorly fitted or top-dose-only effect, or effect the other way; inactive means flat fitted curve, though single readings scatter. No potency is given beside an inconclusive call; the fits are too rough.

experiment: qHTS for induction of synthetic lethality in tumor cells producing 2HG: qHTS for the HT-1080-NT fibrosarcoma cell line; conditions: HT-1080-NT fibrosarcoma viability, CellTiter-Glo ATP luminescence, 48 h; activity, negative = less viability: at 46.1 µM (top of the series) unless noted;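 further: NT is the 2HG producing partner of a matched IDH1 knockdown line; nearly all actives have a fitted effect of over 55% in size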;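 on activity, negative = less viability: 0% = DMSO-treated cells and -100% = media-only wells without cells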
In short: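 Luminescent CellTiter-Glo readout after 48 hours of compound exposure at 37 degrees C defined viability of HT-1080-NT cells. Activity was normalized to DMSO wells and cell-free media wells; concentration-response curves were fitted and assigned curve classes.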
Potency means the concentration at half of the fitted maximal effect; tags describe the fitted curve by direction and shape.

Row | Structure (SMILES) | Potency | activity, negative = less viability
1 | Cc1cc(NC(=O)c2c(F)cccc2Cl)n(-c2nc3ccccc3[nH]2)n1 | inconclusive [cytotoxic, partial curve] | 
2 | CCOC(=O)C1=C(CNCc2ccc(C)cc2)NC(=O)NC1c1ccc(OC)cc1 (stereo not given) | inconclusive [cytotoxic, full curve, poor fit] | 
3 | Cc1ccc(C(=O)Nc2ccc(NC(=O)c3cccs3)cc2)c(C)c1 | inconclusive [cytotoxic, single point] | 
4 | CCOC(=O)c1[nH]c(C)c(/C(O)=C2\C(=O)C(=O)N(CCCN3CCOCC3)C2c2cccs2)c1C (stereo not given) | active: 9.2 µM | 
5 | CN(/N=C/c1ccc(N(C)C)cc1)C1=NS(=O)(=O)c2ccccc21 | inconclusive [cytotoxic, full curve] | 
6 | COc1ccc2c(c1)CC(=O)NC=C2 |  | inactive: 11.8%
7 | Cc1ccc(C)c(NC(=S)NNC(=S)Nc2ccc(C(C)C)cc2)c1 | inconclusive [cytotoxic, single point] | 
8 | Cn1nc([N+](=O)[O-])nc1Sc1nnc(-c2ccccc2)o1 | inconclusive [cytotoxic, single point] | 
9 | COc1ccc(C2=NOC(C(=O)NCc3ccccc3)C2)cc1 (stereo not given) | active: 2.51 µM | 
10 | COc1ccccc1/C=C/C(=O)OCC(=O)Nc1cc(C(F)(F)F)ccc1N1CCOCC1 | inconclusive [cytotoxic, partial curve] | 
11 | Cc1ccc(-n2nnnc2/C=C\Nc2cc(C)on2)cc1 | inconclusive [cytotoxic, single point] | 
12 | CCCCNC(=O)C1(C)CCCCN1C(=O)c1ccc(F)c(C)c1 (stereo not given) |  | inconclusive: 32.8%
13 | CC(C)(C)C(c1nc2ccccc2[nH]1)n1c(-c2cc(Cl)cc(Cl)c2)nc2ccccc21 (stereo not given) | inconclusive [cytotoxic, single point] | 
14 | CCN(Cc1nc2ccccc2c(=O)[nH]1)C(=O)COc1ccccc1Cc1ccccc1 | inconclusive [cytotoxic, partial curve] | 
15 | COc1ccc(N2CCN(C(=O)c3ccc4c(c3)NC(=O)C(CSCc3ccccc3F)N4)CC2)cc1 (stereo not given) | inconclusive [cytotoxic, single point] | 
16 | CSc1ncc2c(n1)-c1cc(C)ccc1SC2 |  | inconclusive: -74.4%
17 | CCn1ncc2c(OCc3ccc(C#N)cc3)cc(C)nc21 |  | inactive: -0.552%
18 | CN(C)S(=O)(=O)c1ccc(S(=O)(=O)Nc2ccc3c(c2)oc2ccccc23)cc1 | inconclusive [cytotoxic, single point] | 

Row | Structure (SMILES) | Potency | activity, negative = less viability
19 | COc1ccc(NC(=O)C(=O)NCCC2CCCCN2S(=O)(=O)c2ccccc2)cc1 (stereo not given) | inconclusive [cytotoxic, single point] | 
20 | Cc1cc(C)nc(Nc2n[nH]c(COc3ccc4ccccc4c3)n2)n1 |  | inactive: -0.0544%
21 | COc1ccc(NC(=O)c2cccc3c(-c4ccc(O)c(OC)c4)coc23)cc1 | inconclusive [cytotoxic, single point] | 
22 | Cc1sc2cc3c(c(C(=O)c4ccccc4)[n+]2c1C)-c1cccc2cccc-3c12 | active: 8.2 µM | 
23 | Cc1c(N=Nc2c(-c3ccc([N+](=O)[O-])cc3)[nH]n(C(N)=S)c2=O)cccc1[N+](=O)[O-] | inconclusive [cytotoxic, partial curve] | 
24 | COc1ccccc1N=NNc1ccc(S(=O)(=O)NC(C)=O)cc1 | inconclusive [rising, single point] | 
25 | CC(C)c1nnc(NC(=O)CC(C)c2ccccc2)s1 (stereo not given) |  | inactive: -8.53%
26 | CN(C)c1nc(N(C)C)nc(N(C#N)CN2C(=O)c3ccccc3S2(=O)=O)n1 |  | inactive: -2.69%
27 | O=C(c1ccccc1)c1nc[nH]c1C(=O)Nc1ccccn1 |  | inactive: 18.6%
28 | C[C@@H](C(=O)Nc1ccc2ccccc2c1)[C@H]1C[C@]1(C)[C@H](NC(=O)OCc1ccccc1)c1ccccc1 |  | inactive: -10.4%
29 | CC(C)c1cccc(-c2csc(C(C)(O)c3ccc(F)c(F)c3)n2)c1 (stereo not given) | inconclusive [cytotoxic, single point] | 
30 | Cc1ccc(C)c(NC(=O)CN(C)C(=O)C2CCN(C(=O)Nc3ccccc3)CC2)c1 | inconclusive [rising, single point] | 
31 | O=C(Cc1ccc(S(=O)(=O)N2CCCC2)s1)N1CCN(c2ccccc2)CC1 |  | inactive: 12.7%
32 | COCC(=O)OC1CCn2c1nc1c2C(=O)C(C)=C(NC(C)=O)C1=O (stereo not given) | active: 7.31 µM | 
33 | Cc1cccc(NC(=S)N=Nc2c(O)n(CN3CCOCC3)c3ccccc23)c1C |  | inactive: -12.7%
34 | O=C(/C=C/c1ccccc1Cl)c1ccccc(=O)c1O | active: 11.6 µM | 
35 | Cc1cccc(C)c1NC(=O)NN(C(=O)c1ccccc1)C(C)(C)C |  | inactive: -6.32%
